Measurements: paper PMC6212790
The other results are listed elsewhere or left out. At the low end of the ranking the order means little.

target: T1, GST-Rok (full length) (UniProt O34857); test: protein binding microarray; settings: Rok is a gene silencer of Bacillus subtilis; high values mean tight binding; most listed sequences are background and not binding sites; double strand, one strand shown;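 also: rank score from −0.5 (least bound) to 0.5 (best bound)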
T1 sequence: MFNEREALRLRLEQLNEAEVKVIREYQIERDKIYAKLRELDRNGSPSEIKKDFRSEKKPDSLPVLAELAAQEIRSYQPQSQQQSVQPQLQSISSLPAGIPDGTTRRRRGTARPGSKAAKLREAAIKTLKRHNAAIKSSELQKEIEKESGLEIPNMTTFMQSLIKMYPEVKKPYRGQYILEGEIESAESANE

| Sequence | binding signal |
| --- | --- |
| AGGGGTCC | -0.388 E-score |
| AAACGTCA | 0.0127 E-score |
| AGATCACC | 0.158 E-score |
| CATGAACA | 0.047 E-score |
| AGGCCGCG | -0.215 E-score |
| ACTCATCA | 0.163 E-score |
| CGCTTCCA | -0.116 E-score |
| ATGGAAAA | 0.0297 E-score |
| GGTCGCGA | -0.153 E-score |
| GGGTCGCA | -0.212 E-score |
| TGGTCAAA | -0.0114 E-score |
| CGCGACAA | -0.163 E-score |
| ATAGAAGG | 0.00765 E-score |
| TCCAGGCA | -0.117 E-score |
| CACACACA | 0.0466 E-score |
| GTCGATGA | -0.0534 E-score |
| AAGCCCAT | -0.152 E-score |
| CTTACCAC | 0.00163 E-score |
| AATGTTGT | 0.154 E-score |
| TACGGATA | 0.0212 E-score |
| ACCAGTCA | -0.0676 E-score |
| GCCCGAGA | -0.252 E-score |
| AACTAGTG | 0.39 E-score |
| GAAGGGCC | -0.305 E-score |
| GAAACCAA | -0.0226 E-score |

| Sequence | binding signal |
| --- | --- |
| ACTAAAAG | 0.303 E-score |
| CTTTCTCC | 0.0988 E-score |
| AAGCTAAC | -0.111 E-score |
| CAGTAGGC | -0.157 E-score |
| AGCATAAC | 0.0217 E-score |
| CCTCATCG | -0.0228 E-score |
| AAGCCTAC | -0.0131 E-score |
| TAGCGAGA | 0.123 E-score |
| AAGAAAGG | -0.0808 E-score |
| AATAGGAG | 0.0707 E-score |
| AAACAGAA | 0.0069 E-score |
| TCGCGGAA | 0.0925 E-score |
| GCACTGTA | -0.03 E-score |
| ATCTGGCA | -0.173 E-score |
| GACGACTC | -0.233 E-score |
| ACGACCAC | -0.124 E-score |
| GAGATTTA | 0.0346 E-score |
| TATCGCGA | 0.115 E-score |
| AAGACCAC | -0.208 E-score |
| CAGGCTTA | -0.199 E-score |
| TCCTATCA | 0.123 E-score |
| AAGGACCG | -0.233 E-score |
| CTACACTA | 0.232 E-score |
| CAATCGGA | 0.132 E-score |
| CTAACTTA | 0.213 E-score |

| Sequence | binding signal |
| --- | --- |
| TATCAAAA | 0.158 E-score |
| ACTGTGAA | 0.0225 E-score |
| AGTATCTC | 0.238 E-score |
| ACAATATC | 0.217 E-score |
| AGATCACT | -0.0981 E-score |
| GCCAACAC | -0.068 E-score |
| ACTCACTG | -0.00121 E-score |
| AACGTTCC | -0.161 E-score |
| ACATAACA | 0.238 E-score |
| CGATACTA | 0.328 E-score |
| AACGAACG | -0.0939 E-score |
| GCTTCTAC | 0.295 E-score |
| CTTCCAAC | -0.238 E-score |
| AACTTGAG | -0.00396 E-score |
| AATAGCAA | 0.229 E-score |
| ACCTGTAC | 0.103 E-score |
| ACGAAAAA | -0.0171 E-score |
| GGAGCGAA | -0.209 E-score |
| CAAACAAG | -0.113 E-score |
| AGGTCCCA | -0.142 E-score |
| GTCGGAAA | -0.231 E-score |
| CACTCGCC | -0.278 E-score |
| ATTGTTCC | -0.0436 E-score |
| CTTGGTCA | -0.139 E-score |
| GGTCCACC | -0.365 E-score |

| Sequence | binding signal |
| --- | --- |
| CCGAGTCC | -0.265 E-score |
| GAATGGTC | 0.0086 E-score |
| AACATGCT | 0.000188 E-score |
| ACTGTGGA | -0.123 E-score |
| AATCCAAA | 0.0354 E-score |
| CCTTAGAC | -0.0943 E-score |
| CACTGCAA | -0.0826 E-score |
| ACGCGAGT | -0.121 E-score |
| ACCCTAGG | -0.193 E-score |
| CGCGCGCC | -0.242 E-score |
| AACTGCTT | 0.0154 E-score |
| ATCAACAG | 0.197 E-score |
| GCGCGTCA | -0.282 E-score |
| AGCACACA | -0.176 E-score |
| ACGCTGAA | 0.0233 E-score |
| CTAGTATC | 0.241 E-score |
| ATAGATTA | 0.301 E-score |
| CCAAAAAC | 0.0933 E-score |
| TATGTAGA | 0.292 E-score |
| TAGTAACA | 0.366 E-score |
| AAAAAACG | 0.13 E-score |
| CAACAACG | 0.0142 E-score |
| AAGAAGCG | -0.137 E-score |
| GACTTAGC | 0.00602 E-score |
| ATATTCCA | 0.261 E-score |

| Sequence | binding signal |
| --- | --- |
| CAACTGGC | -0.228 E-score |
| AATAACCC | -0.0129 E-score |
| CGTTAGCA | -0.119 E-score |
| ATGGCATG | -0.0934 E-score |
| AGTGCACT | 0.155 E-score |
| CAAGCCTG | -0.125 E-score |
| AACGCGAT | -0.00113 E-score |
| GGGGAACA | -0.118 E-score |
| CTCCGCCC | -0.38 E-score |
| CGTTGAAG | 0.0718 E-score |
| CACGAACA | -0.0305 E-score |
| ATCACAGG | -0.105 E-score |
| GCTCCCGA | -0.299 E-score |
| ACCGAAAG | -0.236 E-score |
| GACGTGCC | -0.201 E-score |
| GGCGAGAC | -0.285 E-score |
| CCACACCA | 0.0354 E-score |
| ACAGGATC | 0.0392 E-score |
| ATTGATGC | -0.0878 E-score |
| AATGATTC | 0.111 E-score |
| CGGTCAAA | -0.104 E-score |
| CTTTAACA | -0.0713 E-score |
| AGGGTGGG | -0.115 E-score |
| AGACTTAG | -0.0479 E-score |
| ACTTCAAA | 0.0898 E-score |

| Sequence | binding signal |
| --- | --- |
| CACTTTCA | 0.01 E-score |
| CTCATGTA | 0.275 E-score |
| GCGTGAGC | -0.289 E-score |
| TAAAGAAA | -0.058 E-score |
| AACGAGGT | -0.102 E-score |
| AGCACCCT | -0.103 E-score |
| CGCGCGCG | 0.183 E-score |
| CGCCGAAC | -0.0302 E-score |
| ATCATCCG | 0.0145 E-score |
| AGATTTTA | 0.294 E-score |
| GGAGGCAC | -0.254 E-score |
| CAATTCCC | 0.0664 E-score |
| GAACACGA | -0.0187 E-score |
| CGAAACTA | 0.446 E-score |
| CAAGTATA | 0.204 E-score |
| CTGTGTAC | 0.165 E-score |
| CCATGCAC | -0.225 E-score |
| TGCACCAA | -0.0683 E-score |
| AACAGTTA | 0.238 E-score |
| GCCGTAAC | 0.044 E-score |
| CCAGCCGC | -0.399 E-score |
| ATGACTAC | 0.0883 E-score |
| ATGCTTCG | -0.00471 E-score |
| ATCTTCAC | 0.146 E-score |
| AGCAGCAG | -0.124 E-score |

| Sequence | binding signal |
| --- | --- |
| ACTAGTAA | 0.382 E-score |
| ACAGTAAA | 0.24 E-score |
| AGGCTACC | -9.3e-05 E-score |
| ATGACACC | 0.0339 E-score |
| ACGGTATC | 0.0533 E-score |
| ATGGTACG | 0.183 E-score |
| GAGGAAAC | -0.178 E-score |
| AGATCGAG | 0.0416 E-score |
| AACATGAG | 0.0158 E-score |
| CAACGGTG | -0.212 E-score |
| ACTCGGAC | -0.182 E-score |
| CCTGCGCG | -0.105 E-score |
| GGTCGTGA | -0.125 E-score |
| ACCGTTAT | 0.21 E-score |
| CGGAATTC | 0.052 E-score |
| AGAGGTGC | -0.0479 E-score |
| AGACTTAC | 0.0503 E-score |
| AAGCGCAA | -0.0404 E-score |
| AAAGGTTA | -0.0833 E-score |
| AGTGCCCC | -0.307 E-score |
| CTGGCTTA | -0.0246 E-score |
| TGAGCCAA | -0.197 E-score |
